From the CheMixHub ionic liquid set
± gives the uncertainty stated by the source. Further values from the same series stand in other lists.

Experiment: xn = mol fraction of the nth substance listed
Settings: 100 kPa

C[C@H](N)C(=O)[O-].C[N+](C)(C)CCO + CCCO
Settings	viscosity [mPa·s]
298.81 K, x1 = 0.9049	1069 ± 260
299.98 K, x1 = 0.0997	5.9 ± 1.4
299.98 K, x1 = 0.2007	15.4 ± 3.7
299.98 K, x1 = 0.2998	31.7 ± 7.6
299.98 K, x1 = 0.3915	63 ± 15
299.98 K, x1 = 0.506	130 ± 31
299.98 K, x1 = 0.6047	237 ± 57
299.98 K, x1 = 0.6939	381 ± 93
299.98 K, x1 = 0.7915	590 ± 140
299.98 K, x1 = 0.9049	970 ± 240
300.27 K, x1 = 1	1538 ± 390
300.61 K, x1 = 1	1681 ± 430
301.15 K, x1 = 0.0997	5.7 ± 1.4
301.16 K, x1 = 0.2007	14.8 ± 3.5
301.16 K, x1 = 0.2998	30.2 ± 7.2
301.16 K, x1 = 0.3915	59 ± 14
301.16 K, x1 = 0.506	122 ± 29
301.16 K, x1 = 0.6047	219 ± 53
301.16 K, x1 = 0.6939	352 ± 86
301.16 K, x1 = 0.7915	540 ± 130
301.16 K, x1 = 0.9049	890 ± 220
302.33 K, x1 = 0.0997	5.5 ± 1.3
302.33 K, x1 = 0.2007	14.1 ± 3.4
302.33 K, x1 = 0.2998	28.6 ± 6.9
302.33 K, x1 = 0.3915	56 ± 13
302.33 K, x1 = 0.506	114 ± 27
302.33 K, x1 = 0.6047	202 ± 49
302.33 K, x1 = 0.6939	324 ± 79
302.33 K, x1 = 0.7915	490 ± 120
302.33 K, x1 = 0.9049	810 ± 200
302.34 K, x1 = 1	1310 ± 330
302.66 K, x1 = 1	1421 ± 360
303.51 K, x1 = 0.0997	5.4 ± 1.3
303.51 K, x1 = 0.2007	13.5 ± 3.2
303.51 K, x1 = 0.2998	27.4 ± 6.6
303.51 K, x1 = 0.3915	52 ± 13
303.51 K, x1 = 0.506	107 ± 26
303.51 K, x1 = 0.6047	187 ± 45
303.51 K, x1 = 0.6939	302 ± 73
303.51 K, x1 = 0.7915	460 ± 110
303.51 K, x1 = 0.9049	740 ± 180
304.41 K, x1 = 1	1119 ± 280
304.68 K, x1 = 0.0997	5.3 ± 1.3
304.68 K, x1 = 0.2007	12.9 ± 3.1
304.68 K, x1 = 0.2998	26.1 ± 6.3
304.68 K, x1 = 0.3915	49 ± 12
304.68 K, x1 = 0.506	101 ± 24
304.68 K, x1 = 0.9049	680 ± 170
304.69 K, x1 = 0.6047	173 ± 42
304.69 K, x1 = 0.6939	280 ± 68
304.69 K, x1 = 0.7915	420 ± 100
304.72 K, x1 = 1	1206 ± 300
305.86 K, x1 = 0.0997	5.1 ± 1.2
305.86 K, x1 = 0.2007	12.3 ± 3
305.86 K, x1 = 0.2998	24.7 ± 5.9
305.86 K, x1 = 0.3915	46 ± 11
305.86 K, x1 = 0.506	94 ± 23
305.86 K, x1 = 0.6047	159 ± 38
305.86 K, x1 = 0.6939	260 ± 63
305.86 K, x1 = 0.7915	389 ± 95
305.86 K, x1 = 0.9049	620 ± 150
306.48 K, x1 = 1	960 ± 240
306.78 K, x1 = 1	1030 ± 260
307.04 K, x1 = 0.0997	4.9 ± 1.2
307.04 K, x1 = 0.2007	11.8 ± 2.8
307.04 K, x1 = 0.2998	23.6 ± 5.7
307.04 K, x1 = 0.3915	44 ± 10
307.04 K, x1 = 0.506	89 ± 21
307.04 K, x1 = 0.6047	148 ± 36
307.04 K, x1 = 0.6939	243 ± 59
307.04 K, x1 = 0.7915	362 ± 88
307.04 K, x1 = 0.9049	570 ± 140
308.21 K, x1 = 0.0997	4.8 ± 1.2
308.21 K, x1 = 0.2007	11.2 ± 2.7
308.21 K, x1 = 0.2998	22.5 ± 5.4
308.21 K, x1 = 0.3915	41.1 ± 9.9
308.21 K, x1 = 0.506	84 ± 20
308.21 K, x1 = 0.6047	137 ± 33
308.21 K, x1 = 0.9049	530 ± 130
308.22 K, x1 = 0.6939	228 ± 55
308.22 K, x1 = 0.7915	336 ± 82
308.54 K, x1 = 1	830 ± 210
308.84 K, x1 = 1	880 ± 220
310.61 K, x1 = 1	720 ± 180
310.9 K, x1 = 1	760 ± 190
312.67 K, x1 = 1	630 ± 160
312.95 K, x1 = 1	660 ± 160
314.74 K, x1 = 1	550 ± 140
315.01 K, x1 = 1	570 ± 140
316.82 K, x1 = 1	480 ± 120
317.07 K, x1 = 1	500 ± 120
318.91 K, x1 = 1	420 ± 100
319.13 K, x1 = 1	440 ± 110
321.04 K, x1 = 1	374 ± 93
321.19 K, x1 = 1	387 ± 96
323.2 K, x1 = 1	337 ± 85
323.25 K, x1 = 1	342 ± 86

C[C@H](N)C(=O)[O-].C[N+](C)(C)CCO + CCO
Settings	viscosity [mPa·s]
298.81 K, x1 = 0.8027	730 ± 180
298.81 K, x1 = 0.894	1125 ± 280
299.98 K, x1 = 0.1013	3.69 ± 0.89
299.98 K, x1 = 0.2012	11.6 ± 2.8
299.98 K, x1 = 0.2903	27.9 ± 6.7
299.98 K, x1 = 0.3782	58 ± 14
299.98 K, x1 = 0.5527	176 ± 43
299.98 K, x1 = 0.6071	243 ± 59
299.98 K, x1 = 0.7056	440 ± 110
299.98 K, x1 = 0.8027	670 ± 160
299.98 K, x1 = 0.894	1024 ± 250
300.27 K, x1 = 1	1538 ± 390
300.61 K, x1 = 1	1681 ± 430
301.16 K, x1 = 0.1013	3.55 ± 0.85
301.16 K, x1 = 0.2012	11 ± 2.7
301.16 K, x1 = 0.2903	26.7 ± 6.4
301.16 K, x1 = 0.3782	56 ± 14
301.16 K, x1 = 0.5527	165 ± 40
301.16 K, x1 = 0.6071	224 ± 54
301.16 K, x1 = 0.7056	403 ± 98
301.16 K, x1 = 0.8027	610 ± 150
301.16 K, x1 = 0.894	930 ± 230
302.33 K, x1 = 0.1013	3.44 ± 0.83
302.33 K, x1 = 0.2012	10.6 ± 2.5
302.33 K, x1 = 0.2903	25.8 ± 6.2
302.33 K, x1 = 0.3782	55 ± 13
302.33 K, x1 = 0.5527	157 ± 38
302.33 K, x1 = 0.6071	207 ± 50
302.33 K, x1 = 0.7056	373 ± 91
302.33 K, x1 = 0.8027	570 ± 140
302.33 K, x1 = 0.894	850 ± 210
302.34 K, x1 = 1	1310 ± 330
302.66 K, x1 = 1	1421 ± 360
303.51 K, x1 = 0.1013	3.32 ± 0.8
303.51 K, x1 = 0.2012	10.2 ± 2.5
303.51 K, x1 = 0.2903	25 ± 6
303.51 K, x1 = 0.3782	52 ± 13
303.51 K, x1 = 0.5527	149 ± 36
303.51 K, x1 = 0.6071	192 ± 46
303.51 K, x1 = 0.7056	347 ± 84
303.51 K, x1 = 0.8027	520 ± 130
303.51 K, x1 = 0.894	780 ± 190
304.41 K, x1 = 1	1119 ± 280
304.69 K, x1 = 0.1013	3.22 ± 0.77
304.69 K, x1 = 0.2012	9.9 ± 2.4
304.69 K, x1 = 0.2903	24 ± 5.8
304.69 K, x1 = 0.3782	50 ± 12
304.69 K, x1 = 0.5527	138 ± 33
304.69 K, x1 = 0.6071	181 ± 44
304.69 K, x1 = 0.7056	320 ± 78
304.69 K, x1 = 0.8027	480 ± 120
304.69 K, x1 = 0.894	720 ± 180
304.72 K, x1 = 1	1206 ± 300
305.86 K, x1 = 0.1013	3.12 ± 0.75
305.86 K, x1 = 0.2012	9.6 ± 2.3
305.86 K, x1 = 0.2903	23.1 ± 5.6
305.86 K, x1 = 0.3782	47 ± 11
305.86 K, x1 = 0.5527	129 ± 31
305.86 K, x1 = 0.6071	179 ± 43
305.86 K, x1 = 0.7056	296 ± 72
305.86 K, x1 = 0.8027	440 ± 110
305.86 K, x1 = 0.894	660 ± 160
306.48 K, x1 = 1	960 ± 240
306.78 K, x1 = 1	1030 ± 260
307.04 K, x1 = 0.1013	3.02 ± 0.73
307.04 K, x1 = 0.2012	9.4 ± 2.3
307.04 K, x1 = 0.2903	22.6 ± 5.4
307.04 K, x1 = 0.3782	46 ± 11
307.04 K, x1 = 0.5527	121 ± 29
307.04 K, x1 = 0.6071	170 ± 41
307.04 K, x1 = 0.7056	276 ± 67
307.04 K, x1 = 0.8027	410 ± 100
307.04 K, x1 = 0.894	610 ± 150
308.21 K, x1 = 0.1013	2.93 ± 0.73
308.21 K, x1 = 0.5527	113 ± 27
308.21 K, x1 = 0.6071	159 ± 38
308.21 K, x1 = 0.8027	379 ± 92
308.22 K, x1 = 0.2012	9.1 ± 2.2
308.22 K, x1 = 0.2903	22.8 ± 5.5
308.22 K, x1 = 0.3782	45 ± 11
308.22 K, x1 = 0.7056	256 ± 62
308.22 K, x1 = 0.894	560 ± 140
308.54 K, x1 = 1	830 ± 210
308.84 K, x1 = 1	880 ± 220
310.61 K, x1 = 1	720 ± 180
310.9 K, x1 = 1	760 ± 190
312.67 K, x1 = 1	630 ± 160
312.95 K, x1 = 1	660 ± 160
314.74 K, x1 = 1	550 ± 140
315.01 K, x1 = 1	570 ± 140
316.82 K, x1 = 1	480 ± 120
317.07 K, x1 = 1	500 ± 120
318.91 K, x1 = 1	420 ± 100
319.13 K, x1 = 1	440 ± 110
321.04 K, x1 = 1	374 ± 93
321.19 K, x1 = 1	387 ± 96
323.2 K, x1 = 1	337 ± 85
323.25 K, x1 = 1	342 ± 86
